Assay results from the supplement of paper PMC4967469.
IC50 is the fitted dose that halves viability relative to control wells, and lower means more sensitive; a limit (>, <) means that the fit lies beyond the doses tested. AUC is the area under the same curve over the 256-fold range up to the top dose, as a fraction; it is 1 without any effect and falls as sensitivity rises. For some of these results: Any top dose called inferred was calculated from the reported fits. For some of these results: An entry number marks a drug with two screens in the source, which often give different values.

Assays:
Assay in all cases: Viability of human cancer cell lines after 72 h of drug (GDSC screen)
[1] = compound: COCC[n+]1c2c(n(Cc3cnccn3)c1C)C(=O)c1ccccc1C2=O [YM155]; conditions: top dose 5.12 µM
Method: (§1)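 Human cancer cell lines in 384-well plates, medium with 10% serum, drug for 72 h over a 256-fold dose range (nine 2-fold or five 4-fold steps up to the top dose). Adherent lines were fixed and stained with the nucleic acid dye Syto60, suspension lines read with resazurin; signal relative to control wells, capped at 0 and 100%. One two-parameter sigmoid per drug and line, fitted in a mixed model over all curves with the slope shared within a line.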

[2] = compound: CCOc1nc(NC(=O)Cc2cc(OC)ccc2OC)cc(N)c1C#N [JNK Inhibitor VIII]; conditions: top dose 10 µM; top dose inferred
Method: as §1

[3] = compound: CN1CCN(c2ccc([N+](=O)[O-])c3no[n+]([O-])c23)CC1 [NSC-207895]; conditions: top dose 20 µM; top dose inferred
Method: as §1

[4] = compound: O=C(/C=C/c1cccc(S(=O)(=O)Nc2ccccc2)c1)NO [Belinostat]; conditions: top dose 20 µM; top dose inferred
Method: as §1

[5] = compound: c1ccc2c(CCNc3ccc(Nc4ccncc4)cc3)c[nH]c2c1 [JNJ-26854165]; conditions: top dose 10 µM
Method: as §1

[6] = compound: Cc1ccc(C(=O)N(CCCN)[C@@H](c2nc3cc(Cl)ccc3c(=O)n2Cc2ccccc2)C(C)C)cc1 [SB-715992]; conditions: top dose 0.128 µM; top dose inferred
Method: as §1

[7] = compound: C[C@]1(O)C[C@@H](c2nc(-c3ccc4ccc(-c5ccccc5)nc4c3)c3c(N)nccn32)C1 [OSI-906]; conditions: top dose 2.56 µM; top dose inferred
Method: as §1

[8] = compound: COC(=O)[C@H](CCSC)NC(=O)c1ccc(NC[C@@H](N)CS)cc1-c1ccccc1 [FTI-277]; conditions: top dose 1.024 µM; top dose inferred
Method: as §1

[9] = compound: Cc1sc2c(c1C)C(c1ccc(Cl)cc1)=N[C@@H](CC(=O)OC(C)(C)C)c1nnc(C)n1-2 [JQ1]
Method: as §1

[10] = compound: CC1(C)CNc2cc(NC(=O)c3cccnc3NCc3ccncc3)ccc21 [AMG-706]; conditions: top dose 2 µM; top dose inferred
Method: as §1

[11] = compound: CC(=O)O[C@@]12CO[C@@H]1C[C@H](O)[C@@]1(C)C(=O)[C@H](O)C3=C(C)[C@@H](OC(=O)[C@H](O)[C@@H](NC(=O)OC(C)(C)C)c4ccccc4)C[C@@](O)([C@@H](OC(=O)c4ccccc4)[C@H]21)C3(C)C [Docetaxel]; conditions: top dose 0.0125 µM
Method: as §1

[12] = top dose 1 µM, screen: GDSC drug entry 1218, top dose inferred
[13] = top dose 2.56 µM, screen: GDSC drug entry 163

Cell Line | AUC [1] | IC50 [1] [nM] | AUC [2] | IC50 [2] [nM] | AUC [3] | IC50 [3] [nM] | AUC [4] | IC50 [4] [nM] | AUC [5] | IC50 [5] [nM] | AUC [6] | IC50 [6] [nM] | AUC [7] | IC50 [7] [nM] | AUC [8] | IC50 [8] [nM] | AUC [9, 12] | IC50 [9, 12] [nM] | AUC [9, 13] | IC50 [9, 13] [nM] | AUC [10] | IC50 [10] [nM] | AUC [11] | IC50 [11] [nM]
ASH-3 (thyroid, adherent) | 0.445 | 226 | 0.981 | > 10000 | 0.946 | > 20000 | 0.939 | > 20000 | 0.945 | > 10000 | 0.985 | > 128 | 0.925 | > 2560 | 0.988 | > 1020 | 0.987 | > 1000 | 0.779 | 1040 | 0.983 | > 2000 | – | –
BCPAP (thyroid, adherent) | 0.054 | < 20 | 0.973 | > 10000 | 0.854 | 13500 | 0.274 | 308 | 0.892 | 9820 | 0.98 | > 128 | 0.959 | > 2560 | 0.973 | > 1020 | 0.988 | > 1000 | 0.676 | 470 | 0.974 | > 2000 | – | –
SW900 (lung squamous cell carcinoma, adherent) | 0.041 | < 20 | 0.969 | > 10000 | 0.982 | > 20000 | 0.535 | 1590 | 0.683 | 2220 | 0.928 | > 128 | 0.842 | 2230 | 0.981 | > 1020 | 0.98 | > 1000 | 0.947 | > 2560 | 0.969 | > 2000 | – | –
MES-SA (uterus, adherent) | 0.885 | 4160 | 0.991 | > 10000 | 0.987 | > 20000 | 0.992 | > 20000 | 0.939 | > 10000 | 0.976 | > 128 | 0.992 | > 2560 | 0.99 | > 1020 | 0.991 | > 1000 | 0.711 | 565 | 0.992 | > 2000 | – | –
JHH-2 (liver, adherent) | 0.031 | < 20 | 0.964 | > 10000 | 0.576 | 2050 | 0.414 | 714 | 0.959 | > 10000 | 0.938 | > 128 | 0.967 | > 2560 | 0.946 | > 1020 | 0.916 | > 1000 | 0.986 | > 2560 | 0.961 | > 2000 | – | –
A172 (glioma, adherent) | 0.284 | 80.4 | 0.983 | > 10000 | 0.982 | > 20000 | 0.481 | 1110 | 0.861 | 7970 | 0.961 | > 128 | 0.894 | > 2560 | 0.953 | > 1020 | 0.986 | > 1000 | 0.899 | > 2560 | 0.979 | > 2000 | – | –
MFE-319 (endometrium, adherent) | 0.967 | > 5120 | 0.952 | > 10000 | 0.989 | > 20000 | 0.924 | > 20000 | 0.961 | > 10000 | 0.638 | 19 | 0.989 | > 2560 | 0.973 | > 1020 | 0.988 | > 1000 | 0.656 | 428 | 0.913 | > 2000 | – | –
MKN28 (stomach, adherent) | 0.125 | < 20 | 0.976 | > 10000 | 0.826 | 12400 | 0.649 | 3270 | 0.868 | 9520 | 0.929 | > 128 | 0.947 | > 2560 | 0.862 | 914 | – | – | 0.801 | 1280 | 0.953 | > 2000 | – | –
NCI-H647 (non-small cell lung carcinoma, adherent) | 0.039 | < 20 | 0.98 | > 10000 | 0.926 | > 20000 | 0.482 | 1120 | 0.837 | 7180 | 0.669 | 24.3 | 0.944 | > 2560 | 0.975 | > 1020 | – | – | 0.857 | 2240 | 0.978 | > 2000 | – | –
8505C (thyroid, adherent) | 0.07 | < 20 | 0.935 | > 10000 | 0.692 | 4490 | 0.424 | 764 | 0.831 | 6860 | 0.925 | > 128 | 0.953 | > 2560 | 0.967 | > 1020 | 0.983 | > 1000 | 0.701 | 612 | 0.945 | > 2000 | – | –
SK-MEL-24 (melanoma, adherent) | – | – | – | – | 0.964 | > 20000 | 0.471 | 1030 | 0.842 | 9320 | 0.944 | > 128 | 0.925 | > 2560 | 0.978 | > 1020 | 0.981 | > 1000 | 0.521 | 185 | – | – | 0.85 | > 12.5
NCI-H358 (lung adenocarcinoma, adherent) | 0.031 | < 20 | 0.918 | > 10000 | 0.913 | > 20000 | 0.325 | 381 | 0.924 | > 10000 | 0.649 | 21.8 | 0.694 | 600 | 0.943 | > 1020 | 0.963 | > 1000 | 0.836 | 1980 | 0.897 | > 2000 | – | –
